Results published in PubChem BioAssay AID1508623 (National Center for Advancing Translational Sciences (NCATS), 2021).
Screen size: about 48,000 compounds; about 450 (0.94%) were called active. Another 19% or so got no clear call; they are omitted. Calls come from the whole dose curve; as a rule, active = well fitted inhibition curve with a large enough effect; inconclusive = small, poorly fitted or top-dose-only effect; inactive = no such curve, though single readings can be large or run the other way. This is one part of the list.

assay: Primary qHTS for Identification of Small Molecule Inhibitors of Huntingtin Promoter Activity; settings: HEK293 HTT promoter firefly luciferase reporter (activity 0% = vehicle and -100% = no light), 24 h; series mostly up to 57.5 µM; activity change, negative = inhibition: at the top concentration; note: nearly all actives have a fitted effect of over 50% in size
Method in brief: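 Quantitative HTS used concentration series of up to 57.5 uM final on HEK293 luciferase reporter cells, 24 h at 37 degrees C. Readout was Dual-Glo firefly luminescence.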
Potency is the fitted concentration of half-maximal effect.

SMILES	activity change, negative = inhibition	Potency
CSc1ccc2c(c1)C(N1CCN(C)CC1)Cc1ccccc1S2 (configuration not stated)	inactive: -18.9%	
Cc1nc(-c2ccc(C)c(S(=O)(=O)N3CCC(C(=O)NCc4ccc(Cl)cc4)CC3)c2)no1	inactive: -30%	
COc1ccc(CCNC(=O)C2CCCN(c3nc4c(C)cc(C)cc4s3)C2)cc1OC (configuration not stated)	inactive: -10.9%	
Cc1ccc(S(=O)(=O)C(CNC(=O)c2ccccc2F)c2cccs2)cc1 (configuration not stated)	inactive: -22.4%	
Cc1cccc(CSc2nc3c(c(=O)[nH]2)C(c2cccc(O)c2)CC(=O)N3)c1 (configuration not stated)	inactive: -22.4%	
CCOC(=O)c1c(NC(=O)c2cc(C(C)C)on2)sc(C)c1C	inactive: 7.89%	
COc1ccc(C2=C(C)C(=O)N(Cc3ccc(C(=O)NCc4ccc(C)cc4)cc3)S2(=O)=O)cc1	inactive: -12.9%	
CC(C)(C)C(=O)Oc1ccc(S(=O)(=O)Nc2ccccc2C(=O)NCC(=O)O)cc1	inactive	
Cc1cccc(CN2CCN(CC(=O)NCc3ccc(Cl)cc3)C2=O)c1	inactive: -12.5%	
Cc1cc(C)c2oc(C(=O)Nc3c(C(=O)Nc4ccccc4)oc4ccccc34)cc(=O)c2c1	inactive: 15%	
CCCCn1cc(S(=O)(=O)c2ccc(Cl)cc2)c(=O)c2cc(F)c(N3CCCCC3)cc21	inactive: 12.8%	
COc1ccccc1CNC(=O)c1c(O)nc2cc(C)ccn2c1=O	inactive: -9.48%	
Cc1nc2ccc(S(=O)(=O)NC(C(=O)NCc3ccc(Cl)cc3)C(C)C)cc2s1 (configuration not stated)	inactive: -12.2%	
Cc1cccc(C(=O)Nc2ccccc2C(=O)OCc2cc(=O)n3nc(C4CC4)sc3n2)c1	inactive: -13.1%	
CCOC(=O)c1c(-c2ccc(OC)c(OC)c2)csc1NC(=O)c1ccc(F)cc1	inactive: 2.56%	
Cc1cc(C(C)(C)C)c(O)c(C)c1CC1=NCCN1	inactive	
COc1cccc(N2C(=O)CSC23C(=O)N(CC(=O)NCc2ccc(C)cc2)c2ccccc23)c1 (configuration not stated)	inactive: -13.2%	
CSC1=NC2(CCN(C(=O)NC3CCCCC3)CC2)N=C1c1ccc(C(C)(C)C)cc1	inactive: -24.3% [at 11.5 µM]	
NC(Cc1ccc(Cl)cc1)C(=O)O (configuration not stated)	inactive: -0.968% [at 0.739 µM]	
CCCN(CCC)CCCNC(=O)c1cn(CC)c2ccc(S(=O)(=O)N3CCc4ccccc4C3)cc2c1=O	inactive: -6.04%	
COc1cccc(CNCCSc2nnnn2C)c1OCc1ccc(Cl)cc1	inactive: -14.9%	
CN(C)CCCN1c2ccccc2Sc2ccccc21	inactive: -5.4%	
CCc1ccc(Cn2nnc(C(=O)Nc3ccc(C)cc3)c2N)cc1	inactive: 18.6%	
CCOC(=O)c1ccc2c(c1)N(CC(=O)Nc1ccc(CC)cc1)C(=O)c1ccccc1S2	inactive: -16.6%	

SMILES	activity change, negative = inhibition	Potency
COc1cc(NC(=O)Cn2cnc3sc(C)c(S(=O)(=O)N4CCN(C)CC4)c3c2=O)cc(OC)c1OC	inactive: -3.66%	
Cc1ccc(Nc2c(-c3ccc(N4CCOCC4)cc3)nc3ncccn23)cc1C	inactive: -28.9%	
CCOc1cccc(C(=O)Nc2ccc(NC(=O)c3ccc(Br)cc3)cc2)c1	inactive: -32.1%	
CCOC(=O)c1oc2ccc(S(=O)(=O)n3nc(-c4cc(OCC)c(OCC)c(OCC)c4)cc3N)cc2c1C	inactive: -19.2%	
CCc1ccc(N2CCn3c2nc2c3c(=O)n(CCCc3ccccc3)c(=O)n2C)cc1	inactive: 1.91%	
CCOc1ccc(-c2nonc2NC(=O)COc2ccccc2)cc1	inactive: -18.4%	
CCCc1cnc2c(c1SCC(=O)Nc1cccc(C)c1C)c(=O)n(C)c(=O)n2C	inactive: -3.02%	
CCN1CCN(c2cc3c(cc2F)c(=O)c(S(=O)(=O)c2cc(C)cc(C)c2)cn3CC)CC1	inactive: -11.6%	
COc1ccc(NC(=O)Cn2nnc(C(=O)Nc3ccc(C)c(F)c3)c2N)cc1Cl	inactive: -23.7%	
COc1ccc(CNC(=O)CN(c2ccc(OC)cc2)S(=O)(=O)c2c(C)[nH]c(=O)[nH]c2=O)cc1	inactive: -10%	
NS(=O)(=O)c1cc(C(=O)O)cc(N2CCCC2)c1Oc1ccccc1	inactive: -6.29%	
O=C(Cc1ccccc1F)N1CCC(c2nc3c(nnn3Cc3cccc(Cl)c3)c(=O)[nH]2)CC1	inactive: -37.8%	
Cc1cc(C)cc(OCCn2c(CCNC(=O)C3CCCCC3)nc3ccccc32)c1	inactive: -2.13%	
CCOc1ccc(NC(=O)c2c(NC(=O)c3ccccc3Br)sc3c2CCC(C)C3)cc1 (configuration not stated)	inactive: -4.33%	
CCOc1ccc(NC(=O)CC2C(=O)N(c3ccc(C)cc3)C(=O)N2Cc2ccc(OC)cc2)cc1 (configuration not stated)	inactive: -23.1%	
COc1ccc(OC)c(NC(=O)N(C)CCc2c(C)nn(C)c2C)c1	inactive: 16.9%	
CCC(=O)N1CCc2cc(Br)cc(S(=O)(=O)N(CC)Cc3ccccc3)c21	inactive: -3.43%	
Cc1cccc(N2CCN(c3ncnc4onc(C)c34)CC2C)c1 (configuration not stated)		active: 12.6 µM
CCc1cccc(C)c1NC(=O)c1cn2c3c(ccc(Cl)c3c1=O)OC(C)C2 (configuration not stated)	inactive: -16.1%	
Cc1ccc(-c2nc3ncccc3o2)cc1NC(=O)c1ccc(-c2cccc(Cl)c2C)o1	inactive: -8.21%	
Cc1nc(-c2cccc(F)c2)sc1CCNC(=O)C(=O)Nc1ccc2c(c1)OCO2	inactive: -15.7%	
CCOc1ccc(S(=O)(=O)NCC(c2ccc(N(C)C)cc2)N2CCc3ccccc32)cc1 (configuration not stated)	inactive: -17.1%	
Cc1cc(-c2nc3ncccc3o2)ccc1NC(=O)c1ccc(Cl)cc1	inactive: 1.78%	
